Experimental data: PMC7819943, “Rice protein-binding microarrays: a tool to detect cis-acting elements near promoter regions in rice”
This is one part of the list.

These sequences were tested against T1, OsWOX13 (Oryza sativa, UniProt Q5QMM3 1-267) (assay: protein-binding microarray (RPBM); PBS, 2% BSA, 51.3 ng/ul salmon testes DNA, 50 uM zinc acetate, 200 nM TF, 25 C, 1 h; high values mean tight binding). Settings: protein: recombinant; tags: N-terminal polyhistidine and DsRed monomer fusion (pET32a); label: CyDye5-dUTP incorporated in the synthesized complementary strand; 3' TTTTT single-stranded linker to array surface; dsDNA, one strand shown.
T1 sequence: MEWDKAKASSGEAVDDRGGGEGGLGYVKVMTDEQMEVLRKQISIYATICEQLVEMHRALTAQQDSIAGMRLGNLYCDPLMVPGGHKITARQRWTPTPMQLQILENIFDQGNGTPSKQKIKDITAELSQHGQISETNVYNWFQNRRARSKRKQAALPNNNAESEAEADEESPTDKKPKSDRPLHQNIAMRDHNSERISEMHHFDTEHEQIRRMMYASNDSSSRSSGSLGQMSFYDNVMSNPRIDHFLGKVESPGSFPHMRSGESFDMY
How it was run: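 Ni–NTA purification followed expression in E. coli BL21-CodonPlus of transcription factors fused N-terminally to a polyhistidine tag and DsRed. At 200 nM in PBS with 2% BSA, salmon testes DNA and 50 µM zinc acetate, the protein was incubated for 1 h at 25 °C with a custom Agilent array that had been primer-extended with Cy5-dUTP and blocked with 2% BSA. After washing, the array was read on an Axon 4000B scanner. The binding signal is per-feature fluorescence intensity in arbitrary units.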
“ATACTACTTCACATCAATTAAATAAGCTGTGTATACTTGTCGGAGTCACCTAGTGCAG” was tested, and the binding signal was 3880 fluorescence intensity (a.u.).
For “AGTTAATTAAGGAAGTAAGAAGAAGAAATACCAATAAAGACGGAGTCACCTAGTGCAG”, the binding signal was 4470 fluorescence intensity (a.u.).
“GTCACAAAATAAATTTACTTTCACCCATCCCACAAGCACCCGGAGTCACCTAGTGCAG” was tested, and the binding signal was 5090 fluorescence intensity (a.u.).
With “CCATCAATTATTACAAACTCATATGAGTTTAACATCATGACGGAGTCACCTAGTGCAG” the binding signal was 27500 fluorescence intensity (a.u.).
With “TCATATAATAAATAAACGTGCAATAATTGAGGAGGAAGCACGGAGTCACCTAGTGCAG” the binding signal was 4160 fluorescence intensity (a.u.).
For “TGCATGGATTTGATTTTGTGACTGAAGGACCAGATTGCTGCGGAGTCACCTAGTGCAG”, the binding signal was 10400 fluorescence intensity (a.u.).
“GATGCTAACATAAATTAAGATAAAATTTGTATCTTAATGGCGGAGTCACCTAGTGCAG” was tested, and the binding signal was 19300 fluorescence intensity (a.u.).
In the case of “ATTATGTAAATTTTGACTAATGTTTAGTCGAAGTGCAAGTCGGAGTCACCTAGTGCAG”, the binding signal is reported as 8100 fluorescence intensity (a.u.).
With “CTATGATTAGTCATAAGTGTTACAGTAACCCACATGTGCTCGGAGTCACCTAGTGCAG” the binding signal was 25700 fluorescence intensity (a.u.).
“GTTTAGATTTATTGAGTCGCATGCATCAACCAGTTCAACTCGGAGTCACCTAGTGCAG” was tested, and the binding signal was 5190 fluorescence intensity (a.u.).
With “GGACAGATTAACTATCACTTAATTTCAGGTTTCCATGTATCGGAGTCACCTAGTGCAG” the binding signal was 22700 fluorescence intensity (a.u.).
In the case of “GTTGATGGAATTTAAGCATATTGATCTAATCTTATTTTAACGGAGTCACCTAGTGCAG”, the binding signal is reported as 5380 fluorescence intensity (a.u.).
For “AAAGATTTGATATGATAAGAACAAGCAGCCCTTCTCAAAACGGAGTCACCTAGTGCAG”, the binding signal was 3690 fluorescence intensity (a.u.).
“CCAAATTCATTAAAATTAACAATAACAATTATATTTGTTTCGGAGTCACCTAGTGCAG” was tested, and the binding signal was 10900 fluorescence intensity (a.u.).
“CAACATATGATTATTTCACGTTAAGGGAGGCATGTTATTGCGGAGTCACCTAGTGCAG” was tested, and the binding signal was 7360 fluorescence intensity (a.u.).
“GATCAATTTAATTTAGGAAGACCTTATAAAACTTAGGAGTCGGAGTCACCTAGTGCAG” was tested, and the binding signal was 13700 fluorescence intensity (a.u.).
“ATTGGCTAGATTGGAAGCAAGAGAAGCTGCAGCGAAGGCACGGAGTCACCTAGTGCAG” was tested, and the binding signal was 7860 fluorescence intensity (a.u.).
In the case of “TTTGCAATTACTGTTGTGTGGTTTCTATTCACAACGTACACGGAGTCACCTAGTGCAG”, the binding signal is reported as 3930 fluorescence intensity (a.u.).
For “GCTATAAAATTGACTATAATTGATTTGGAGCCGGTAGTTGCGGAGTCACCTAGTGCAG”, the binding signal was 63600 fluorescence intensity (a.u.).
“ATTATAGATTAAACTAATAATAACATCATTCCCATAGCGCCGGAGTCACCTAGTGCAG” was tested, and the binding signal was 12300 fluorescence intensity (a.u.).
In the case of “GTTCAATTAATTCCCACCGTTGGTGATCCATGTTTTATATCGGAGTCACCTAGTGCAG”, the binding signal is reported as 11900 fluorescence intensity (a.u.).
For “AAATCACATTCTAAATTACAGTATTTTAGAACGGATTGGACGGAGTCACCTAGTGCAG”, the binding signal was 3530 fluorescence intensity (a.u.).
In the case of “TCTGAGTGGACGATGATGGATGGCTAGTTCTGACTAGACGCGGAGTCACCTAGTGCAG”, the binding signal is reported as 13300 fluorescence intensity (a.u.).
“CTCCGATTAATGTGGAAATTTCTAACCTCTACAGCGAACGCGGAGTCACCTAGTGCAG” was tested, and the binding signal was 6190 fluorescence intensity (a.u.).
With “CCTCGTGCGCTTCATCAATTAATTAACTCGTTAATTTTCACGGAGTCACCTAGTGCAG” the binding signal was 16100 fluorescence intensity (a.u.).
For “CAACAAGCTAATTAGCATGGCGAATTAATAATTCGCAACCCGGAGTCACCTAGTGCAG”, the binding signal was 15400 fluorescence intensity (a.u.).
In the case of “TTACTGATGGTCTTGATGATTCCTTACAAGATTTTGACTTCGGAGTCACCTAGTGCAG”, the binding signal is reported as 4020 fluorescence intensity (a.u.).
In the case of “AATGACAGGTAGAGTACATCAGTGCAGTTATATATATGGACGGAGTCACCTAGTGCAG”, the binding signal is reported as 8670 fluorescence intensity (a.u.).
In the case of “ATGATGATGATATACACGCCAAATTGAATTAGAAACTGATCGGAGTCACCTAGTGCAG”, the binding signal is reported as 6800 fluorescence intensity (a.u.).
In the case of “GAACATAATTAATTTCTTTCAATTTGGTCTAGCAGAATTCCGGAGTCACCTAGTGCAG”, the binding signal is reported as 31500 fluorescence intensity (a.u.).
“TCTTCCTCAGATACTGATTGCCATTGTTTTGCAGGTCTCTCGGAGTCACCTAGTGCAG” was tested, and the binding signal was 4830 fluorescence intensity (a.u.).
“ATGCACAGCAATTAACAGCCTAACAGAAGACGCGCGTCCGCGGAGTCACCTAGTGCAG” was tested, and the binding signal was 3270 fluorescence intensity (a.u.).
With “TTACAATGATTTCTAGTTTAGAATCACAACTGCAATTTCACGGAGTCACCTAGTGCAG” the binding signal was 10200 fluorescence intensity (a.u.).
In the case of “TTTAACATATCTTAACGGAACAAATATAAATTGTGTTATGCGGAGTCACCTAGTGCAG”, the binding signal is reported as 5100 fluorescence intensity (a.u.).
“ACTAATAATGAAAATTTCCACACCCTTGCTTTTCTAATTTCGGAGTCACCTAGTGCAG” was tested, and the binding signal was 4470 fluorescence intensity (a.u.).
“ATTAGTTGGATTGATTCAAACAAAGAGGTGATAATAATTGCGGAGTCACCTAGTGCAG” was tested, and the binding signal was 11900 fluorescence intensity (a.u.).
“GTTCTTCTTTTACTAATAGATTGAAAAGAAAACTATACGTCGGAGTCACCTAGTGCAG” was tested, and the binding signal was 13500 fluorescence intensity (a.u.).
In the case of “TTCTGGTAAATCAATTATCGCTGACTTTTAGCTGCACCAGCGGAGTCACCTAGTGCAG”, the binding signal is reported as 22400 fluorescence intensity (a.u.).
In the case of “GACATAAATAGATAGTCCCTTCGACTATTTGAGCGATGGTCGGAGTCACCTAGTGCAG”, the binding signal is reported as 5370 fluorescence intensity (a.u.).
In the case of “TCCAAACTGATTTGGTTTGTGCTCACAAACCATTCATACACGGAGTCACCTAGTGCAG”, the binding signal is reported as 13300 fluorescence intensity (a.u.).
In the case of “CTTAATTTAGTAGTTCAGGCAATAGAATATGAGATCTTTTCGGAGTCACCTAGTGCAG”, the binding signal is reported as 6100 fluorescence intensity (a.u.).
With “CTTTTAGTAAATTTATAAACCTAAAGTTTACACATCTAAACGGAGTCACCTAGTGCAG” the binding signal was 4660 fluorescence intensity (a.u.).
